# The antibiotic and cytotoxicity screens of Wong et al. (2023)
# The other results are listed elsewhere or left out.
# Tested on: HSkMC (human skeletal muscle cells)
# Assay: cytotoxicity call (relative viability < 0.9)
# Conditions: 10 µM
row,SMILES,cytotoxicity call
1,CCOc1ccc(Nc2c3ccccc3nc3ccccc23)cc1,inactive
2,C[C@@H]1CCCCO[C@H](CN(C)C(=O)NC2CCCCC2)[C@H](C)CN([C@H](C)CO)C(=O)c2cc(NC(=O)Cc3ccccc3)ccc2O1,inactive
3,C[C@@H]1CN([C@H](C)CO)C(=O)Cc2cc(NC(=O)CCCN(C)C)ccc2O[C@@H]1CN(C)S(=O)(=O)c1ccccc1,inactive
4,O=C(C[C@@H]1C[C@H]2c3cc(NC(=O)NC4CCCC4)ccc3O[C@H]2[C@@H](CO)O1)NCc1ccc2c(c1)OCO2,inactive
5,C[C@@H]1CN([C@@H](C)CO)C(=O)c2cc(C3=CCCC3)cnc2O[C@H]1CN(C)S(=O)(=O)c1cn(C)cn1,inactive
6,C[C@H](CO)N1C[C@H](C)[C@H](CN(C)C(=O)Nc2ccccc2)Oc2ccc(NC(=O)Nc3cccc4ccccc34)cc2C1=O,inactive
7,C[C@@H]1CCCCO[C@@H](CN(C)C(=O)c2ccccc2)[C@@H](C)CN([C@@H](C)CO)C(=O)c2cc(NC(=O)Cc3ccccc3)ccc2O1,inactive
8,Cc1noc(C)c1NC(=O)Nc1cccc2c1O[C@H](CN(C)Cc1ccc(Cl)c(Cl)c1)[C@@H](C)CN([C@H](C)CO)C2=O,inactive
9,Cc1ccc(S(=O)(=O)N(C)C[C@H]2OCCCC[C@@H](C)Oc3ccc(NC(=O)Nc4ccc5c(c4)OCO5)cc3C(=O)N([C@@H](C)CO)C[C@@H]2C)cc1,inactive
10,O=C(O)C[C@](O)(CC(=O)[O][Bi]1[O]C(=O)C[C@@](O)(CC(=O)O)C(=O)[O]1)C(=O)O,inactive
11,Cc1noc(C)c1NC(=O)N(C)C[C@H]1Oc2cc(C#CCN(C)C)ccc2S(=O)(=O)N([C@@H](C)CO)C[C@@H]1C,inactive
12,C[C@@H]1CN([C@@H](C)CO)S(=O)(=O)c2ccc(Br)cc2O[C@H]1CN(C)C(=O)c1ccccc1,inactive
13,CC1(C)C(=O)NCCN1C(=O)Cc1ccccc1,inactive
14,COc1ccc(S(=O)(=O)N2C[C@@H](O)COC[C@H]3O[C@@H](CC(=O)NCCCN4CCOCC4)CC[C@@H]32)cc1,inactive
15,C[C@@H]1CN([C@@H](C)CO)C(=O)c2cc(N(C)C)ccc2O[C@H]1CN(C)S(C)(=O)=O,inactive
16,CC(C)NC(=O)Nc1ccc2c(c1)CC(=O)N([C@H](C)CO)C[C@H](C)[C@H](CN(C)S(=O)(=O)c1cn(C)cn1)O2,inactive
17,O=C(C[C@@H]1CC[C@@H]2[C@H](COC[C@H](O)CN2S(=O)(=O)c2cccc(Cl)c2)O1)NC1Cc2ccccc2C1,inactive
18,Cc1ccc(S(=O)(=O)N(C)C[C@H]2OCCCC[C@@H](C)Oc3ccc(NC(=O)CCC(F)(F)F)cc3C(=O)N([C@H](C)CO)C[C@H]2C)cc1,inactive
19,C[C@@H]1CN([C@H](C)CO)C(=O)c2cc(C3=CCCCC3)cnc2O[C@@H]1CN(C)C(=O)CN1CCOCC1,inactive
20,COc1cccc(NC(=O)N[C@H]2C=C[C@H](CC(=O)N3CCOCC3)O[C@H]2CO)c1,inactive
21,Cc1ccc(S(=O)(=O)N(C)C[C@@H]2OCCCC[C@H](C)Oc3ccc(NC(=O)Nc4c(C)noc4C)cc3C(=O)N([C@@H](C)CO)C[C@@H]2C)cc1,inactive
22,CC(=O)N1CCN(C)CC1,inactive
23,COc1ccc(CNC(=O)C[C@H]2C[C@H]3c4cc(NS(=O)(=O)c5ccc(F)cc5)ccc4O[C@H]3[C@@H](CO)O2)cc1,inactive
24,C[C@H](CO)N1C[C@H](C)[C@@H](CN(C)Cc2cncnc2)Oc2cc(C#CC3CCCC3)ccc2S1(=O)=O,inactive
25,CC(=O)O[C@@H]1[C@@H](OC(C)=O)[C@H](C)O[C@@H](O[C@H]2[C@H](OC/C=C(\C)CC/C=C(\C)CC/C=C(\C)CCC=C(C)C)O[C@H](CO[C@@H]3O[C@@H](C)[C@H](O)[C@@H](O)[C@H]3O)[C@@H](O)[C@@H]2O)[C@@H]1OC(C)=O,inactive
26,C[C@H](CO)N1C[C@H](C)[C@H](CN(C)CC2CCCCC2)Oc2ccc(NC(=O)Cc3cn(C)c4ccccc34)cc2C1=O,inactive
27,COc1ccc(NC(=O)Nc2ccc3c(c2)C(=O)N([C@@H](C)CO)C[C@@H](C)[C@@H](CN(C)Cc2ccc(C(=O)Nc4ccccc4N)cc2)O3)cc1,inactive
28,COc1ccc(NC(=O)N(C)C[C@H]2OCCCC[C@@H](C)Oc3ccc(NC(=O)C4CCCCC4)cc3C(=O)N([C@H](C)CO)C[C@H]2C)cc1,inactive
29,CO[C@H](CN(C)C(=O)Nc1ccc(C(F)(F)F)cc1)[C@H](C)CN(Cc1ccccc1Cl)[C@H](C)CO,inactive
